Source: the supplement of paper PMC8728848
Some of the results follow.

How the values were obtained:
Test in all cases: glycan array binding signal (z-score within array); higher = stronger binding
Details in all cases: glycan notation: IUPAC condensed, linker removed
Gal(a1-4)Gal(b1-4)Glc = biological target: Gal(a1-4)Gal(b1-4)Glc
Summary of the method: (§1)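 From the Consortium for Functional Glycomics database, 3228 arrays were curated, keeping only those whose protein sequence was available. Binding is given as a within-array Z-score averaged across arrays sharing a protein sequence and across linkers. Negative Z-scores can be read as non-binding.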

Gal(a1-4)Gal(b1-4)GlcNAc = biological target: Gal(a1-4)Gal(b1-4)GlcNAc
Summary of the method: as §1

Gal(a1-4)GlcNAc = biological target: Gal(a1-4)GlcNAc
Summary of the method: as §1

Gal(a1-6)Glc = biological target: Gal(a1-6)Glc
Summary of the method: as §1

Gal(b1-2)Gal = biological target: Gal(b1-2)Gal
Summary of the method: as §1

Gal(b1-3)Gal = biological target: Gal(b1-3)Gal
Summary of the method: as §1

Gal(b1-3)GalNAc = biological target: Gal(b1-3)GalNAc
Summary of the method: as §1

[1] = biological target: Gal(b1-3)GalNAc(b1-3)Gal(a1-4)Gal(b1-4)Glc
Summary of the method: as §1

[2] = biological target: Gal(b1-3)GalNAc(b1-4)Gal(b1-4)Glc
Summary of the method: as §1

[3] = biological target: Gal(b1-3)GalNAc(b1-4)[Neu5Ac(a2-3)]Gal(b1-4)Glc
Summary of the method: as §1

Gal(b1-3)GlcNAc = biological target: Gal(b1-3)GlcNAc
Summary of the method: as §1

[4] = biological target: Gal(b1-3)GlcNAc(b1-3)Gal(b1-4)Glc
Summary of the method: as §1

[5] = biological target: Gal(b1-3)GlcNAc(b1-3)Gal(b1-4)GlcNAc
Summary of the method: as §1

[6] = biological target: Gal(b1-3)[Fuc(a1-4)]GlcNAc
Summary of the method: as §1

[7] = biological target: Gal(b1-3)[Fuc(a1-4)]GlcNAc(b1-3)Gal(b1-4)GlcNAc
Summary of the method: as §1

[8] = biological target: Gal(b1-3)[Fuc(a1-4)]GlcNAc(b1-3)Gal(b1-4)[Fuc(a1-3)]GlcNAc
Summary of the method: as §1

[9] = biological target: Gal(b1-3)[GlcNAc(b1-6)]GalNAc
Summary of the method: as §1

[10] = biological target: Gal(b1-3)[Neu5Ac(a2-6)]GalNAc
Summary of the method: as §1

[11] = biological target: Gal(b1-3)[Neu5Ac(a2-6)]GlcNAc(b1-6)Gal(b1-4)Glc
Summary of the method: as §1

[12] = biological target: Gal(b1-3)[Neu5Ac(b2-6)]GalNAc
Summary of the method: as §1

[13] = biological target: Gal(b1-4)GalNAc(a1-3)[Fuc(a1-2)]Gal(b1-4)GlcNAc
Summary of the method: as §1

[14] = biological target: Gal(b1-4)GalNAc(b1-3)[Fuc(a1-2)]Gal(b1-4)GlcNAc
Summary of the method: as §1

Gal(b1-4)Glc = biological target: Gal(b1-4)Glc
Summary of the method: as §1

Gal(b1-4)Glc6S = biological target: Gal(b1-4)Glc6S
Summary of the method: as §1

Gal(b1-4)GlcNAc = biological target: Gal(b1-4)GlcNAc
Summary of the method: as §1

[15] = biological target: Gal(b1-4)GlcNAc(b1-2)Man(a1-3)[Gal(b1-4)GlcNAc(b1-2)Man(a1-6)]Man(b1-4)GlcNAc(b1-4)GlcNAc
Summary of the method: as §1

[16] = biological target: Gal(b1-4)GlcNAc(b1-3)Gal(b1-4)Glc
Summary of the method: as §1

[17] = biological target: Gal(b1-4)GlcNAc(b1-3)Gal(b1-4)GlcNAc
Summary of the method: as §1

[18] = biological target: Gal(b1-4)GlcNAc(b1-3)Gal(b1-4)GlcNAc(b1-3)Gal(b1-4)GlcNAc
Summary of the method: as §1

[19] = biological target: Gal(b1-4)GlcNAc(b1-3)Gal(b1-4)[Fuc(a1-3)]GlcNAc(b1-3)Gal(b1-4)[Fuc(a1-3)]GlcNAc
Summary of the method: as §1

[20] = biological target: Gal(b1-4)GlcNAc(b1-3)GalNAc
Summary of the method: as §1

[21] = biological target: Gal(b1-4)GlcNAc(b1-3)[Gal(b1-4)GlcNAc(b1-6)]GalNAc
Summary of the method: as §1

[22] = biological target: Gal(b1-4)GlcNAc(b1-6)Gal(b1-4)GlcNAc(b1-6)GalNAc
Summary of the method: as §1

[23] = biological target: Gal(b1-4)GlcNAc(b1-6)GalNAc
Summary of the method: as §1

[24] = biological target: Gal(b1-4)GlcNAc(b1-6)[Gal(b1-3)]GalNAc
Summary of the method: as §1

Gal3S(b1-3)GalNAc = biological target: Gal3S(b1-3)GalNAc
Summary of the method: as §1

Gal3S(b1-3)GlcNAc = biological target: Gal3S(b1-3)GlcNAc
Summary of the method: as §1

[25] = biological target: Gal3S(b1-3)[Fuc(a1-4)]GlcNAc
Summary of the method: as §1

Gal3S(b1-4)Glc = biological target: Gal3S(b1-4)Glc
Summary of the method: as §1

Gal3S(b1-4)Glc6S = biological target: Gal3S(b1-4)Glc6S
Summary of the method: as §1

Gal3S(b1-4)GlcNAc = biological target: Gal3S(b1-4)GlcNAc
Summary of the method: as §1

Gal3S(b1-4)GlcNAc6S = biological target: Gal3S(b1-4)GlcNAc6S
Summary of the method: as §1

Gal3S6S(b1-4)GlcNAc = biological target: Gal3S6S(b1-4)GlcNAc
Summary of the method: as §1

Gal3S6S(b1-4)GlcNAc6S = biological target: Gal3S6S(b1-4)GlcNAc6S
Summary of the method: as §1

Gal4S(b1-4)GlcNAc = biological target: Gal4S(b1-4)GlcNAc
Summary of the method: as §1

B1: Siglec-H (Mus musculus), Q4QQK7 (protein)
chain: MLLSRLLPLLWVLKWASGNCFILPREVIGTYPSLTLELQSVTVQEGLCVLVPCHLIEYPMNRWSDAAFGYWFHEGENTHPDSLVATNKPYQLVQKEMQSRFHFSGDCSLDIRDAQKGDNGSYFFRLEKGGKTWNFCEERISVHVTDLTHSPNISIPQTLELGRPTNVMCSVPWACERGTPPIFSWMSAALISLGPTTTLSSVLTLTPRLQDHGTNLTCQVTFPGAGVTVQKTIQLNVTYNSQNSTAHVSGRVGPGKPRPLADVVQVAMGEAAIKFLLLGICFFFLSKRSHTKRVERPATHMDQAHAVMD
- glycan array binding signal (z-score) (Gal(a1-4)Gal(b1-4)Glc): 0.035
- glycan array binding signal (z-score) (Gal(a1-4)Gal(b1-4)GlcNAc): 0.261
- glycan array binding signal (z-score) (Gal(a1-4)GlcNAc): -0.368
- glycan array binding signal (z-score) (Gal(a1-6)Glc): -0.272
- glycan array binding signal (z-score) (Gal(b1-2)Gal): -0.36
- glycan array binding signal (z-score) (Gal(b1-3)Gal): -0.376
- glycan array binding signal (z-score) (Gal(b1-3)GalNAc): -0.203
- glycan array binding signal (z-score) [1]: -0.31
- glycan array binding signal (z-score) [2]: -0.227
- glycan array binding signal (z-score) [3]: -0.279
- glycan array binding signal (z-score) (Gal(b1-3)GlcNAc): -0.179
- glycan array binding signal (z-score) [4]: -0.232
- glycan array binding signal (z-score) [5]: -0.28
- glycan array binding signal (z-score) [6]: 0.302
- glycan array binding signal (z-score) [7]: -0.342
- glycan array binding signal (z-score) [8]: -0.357
- glycan array binding signal (z-score) [9]: 0.675
- glycan array binding signal (z-score) [10]: 0.031
- glycan array binding signal (z-score) [11]: -0.279
- glycan array binding signal (z-score) [12]: -0.168
- glycan array binding signal (z-score) [13]: -0.311
- glycan array binding signal (z-score) [14]: -0.279
- glycan array binding signal (z-score) (Gal(b1-4)Glc): -0.141
- glycan array binding signal (z-score) (Gal(b1-4)Glc6S): -0.241
- glycan array binding signal (z-score) (Gal(b1-4)GlcNAc): -0.284
- glycan array binding signal (z-score) [15]: -0.385
- glycan array binding signal (z-score) [16]: -0.191
- glycan array binding signal (z-score) [17]: -0.348
- glycan array binding signal (z-score) [18]: -0.318
- glycan array binding signal (z-score) [19]: -0.258
- glycan array binding signal (z-score) [20]: -0.27
- glycan array binding signal (z-score) [21]: 6.24
- glycan array binding signal (z-score) [22]: -0.354
- glycan array binding signal (z-score) [23]: -0.41
- glycan array binding signal (z-score) [24]: -0.305
- glycan array binding signal (z-score) (Gal3S(b1-3)GalNAc): -0.302
- glycan array binding signal (z-score) (Gal3S(b1-3)GlcNAc): -0.341
- glycan array binding signal (z-score) [25]: -0.086
- glycan array binding signal (z-score) (Gal3S(b1-4)Glc): -0.253
- glycan array binding signal (z-score) (Gal3S(b1-4)Glc6S): 0.231
- glycan array binding signal (z-score) (Gal3S(b1-4)GlcNAc): -0.359
- glycan array binding signal (z-score) (Gal3S(b1-4)GlcNAc6S): -0.224
- glycan array binding signal (z-score) (Gal3S6S(b1-4)GlcNAc): -0.281
- glycan array binding signal (z-score) (Gal3S6S(b1-4)GlcNAc6S): -0.256
- glycan array binding signal (z-score) (Gal4S(b1-4)GlcNAc): -0.299
